# Test results taken from PubChem BioAssay (NCI).
# Where a structure was tested more than once in an assay, its records may differ in their call.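 Interpretation: 100, growth as untreated; towards 0, rising growth inhibition; 0, no net growth; 0 to -100, cell death. Compounds scoring below 10 were considered active.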 Not every entry of the source has a single result; some have several. This list holds those alone. The source may hold further records. The screen tested this drug many times, at its own concentration, as given; one value stands for one run. Counts like (3×) say how often a value occurs here.
# Legend:
# [1] = test system: NCI-H226 lung; test: NCI-60 one-dose screen, 48 h (100 = growth as untreated, 0 = no growth, -100 = all killed); conditions: 25 µM
# [2] = test system: NCI-H322M lung; test: as above; conditions: 0.25 µM
structure (smiles),measurement,setting,value
COc1cccc2c1C(=O)c1c(O)c3c(c(O)c1C2=O)C[C@@](O)(C(=O)CO)C[C@@H]3OC1CC(N)C(O)C(C)O1 (stereo not given in full),growth,[1]; runs of 1992,"active: -26.6 (2×), -68, -14.4, 1.75, -57, -64.8, -39.9, -43.6, -68.4, -67, -22.7, -0.455, 7.36, -66.1, -60.2 (2×), -54.6, -48, -31.8, -50.7, -69.5, -79.1, -72, -57.1, -75.1, -10.3, -35.6, -71.5, -62.6, -74.1, -72.1, -73.2, -76.5, -76.3, -82.8, -86.5, -47.8, -37.3, -40.1, -50.1, -27.9, -24.8, -74.8, -76 (2×), -82.7 (2×), -86.2, -37.2, -43, -42.9, -38.7, -36.2, -6.84, -36.1, -63.2, -59.8 (2×), -53.9, -51.4, -69.6, -22.4, -28.5, -51.9, -47.9, -49.7, -63.7, -75.3, -83.2, -78.9, -89.3, -91.3, -66.5 (2×), -60.3, -53, -78.3, -84, -81.7, -69.4, -71.3, -64.6, -50.8, -48.5, -67.4 (2×), -68.6, -54.7, -81.5, -73.8, -74.9, -57.8, -64.1, -62.1, -69.9, -40.5, -57.5, -64, -42.3, -69.3, -84.3, -33.9, -62.8% and inactive: 27.6%"
same,growth,[1]; runs of 1993,"active: -46.4, -51.8, -56.1 (2×), -21, -22, -49.4, -57, -37, -19.2, -19.7, -60.8, -72.8, -58.6, -48.2, -10.9, -8.56, -5.38, -30, -32.5, -60.5, -74.6, -45.4, -39.4, -8.36, -37.6, -38.9, -32.2, -37.5, -58.3, -50.7, -55, -40.7, -40.6, -46.3, -44.2, -66.1, -36.9, -26.2, -42.5, -43.3, -34.9, -51.1, -33.6% and inactive: 21.3%"
same,growth,[1]; runs of 1994,"active: -53.5, -36.7, -36.3, -36, -51.4, -44, -42.2, -53.3, 3.5, -57.6, -32.6, -18.2, -52.5, -28.7, -60.9, -60.6, -19.9, -30.6, -1.34, -34.3, -59.6, -64.3, -77.3, -29.9, -35.7, -50, -52.3, -55.1, -0.422, -54, -58.9% and inactive: 57.9%"
same,growth,[1]; runs of 1995,"active: -25.8, -34.3, -57.7 (2×), -35, -42.5, -46.1, -42.2, -25.6, -39.9, -37.6, -36.1, -30.9, -21.5, -36.2, -29.2, -31.4, -36.8, -36.5, -41.6, -63.7, -56.3, -71.2, -67.4, -72.4, -88.8, -48.3, -3.89, -50.8, -64.8, -16.3, 4.01, -2.37, -37.5, 0.651, 3.46, 1.27%"
same,growth,[1]; runs of 1996,"active: -19.7, -30.7 (2×), -23.3, -17.1, -5.65, -19.5, -29.1, -59.6, -58.1, -39.4, -54.6, -17.9, -34.2, -24.6, -40.9, -21.1, -32.4, -31.2, -17.5, -44.3, -56.7, -44.5, -55.7, -60.1, -49.3, -73.4, -47.5, -71.5, -63.7, -76.6, -72, -65.6, -49.5, -61, -19, -69.8, -25.6, -9.35, 9.38, -31.5, -1.43, -26.8, -27.2, -15.3, -8.39, -18.3, 2.41, -13.8, 3.6, -39.8, -22, 0.806% and inactive: 22.5, 87.7, 39.1, 14.3%"
same,growth,[1]; runs of 1997,"active: -9.42, -33.8, -42.8, -30.8, -30.1, -50.9, -54.7 (2×), 2.28, -15.3, -25, -60.5, -35.2, -47.7, -36.1, -47.6 (2×), -68.7, -62.7, -33.1, -54.3, -59.1, -25.4, -43.6, -61.9, -67.8, -63.5, -62.1, -74.6, -65.7, -58.6, -70.6, 6.85, -6.16, -56.7, 7.06, -15.2% and inactive: 11%"
same,growth,[1]; runs of 1998,"active: -0.781, -19.5, -19.8, -49.3, -37.7 (2×), -42.5, -34.4, -10.1, -54, -27.3, -18.8, -16.6, -42, -36.7, -13.1, -24.6, -22.9, -16.5%"
same,growth,[1]; runs of 1999,"active: -32.7, -43.2, -9.66, -19.5, -42.4, -78.8, -82.6, -94.3, -9.27, -75.6, -88.5, 0.863%"
same,growth,[1]; runs of 2000,"active: -100, -98.5, -27.5, -88.2%"
same,growth,[2]; runs of 2006,"inactive: 77.3%, 71%"
same,growth,[2]; runs of 2007,"inactive: 82.1, 74.8, 85.7, 75.5, 76.1, 81.9, 83.5, 77.8, 92.1, 86.9, 75.8, 85, 91.2 (2×), 74.2, 94.9, 146, 94.2, 57.7, 97.2, 90.2 (2×), 89 (2×), 96.8, 92.4, 87.2, 69.4, 92.9, 91.3, 93.9, 84.5, 88.3 (2×), 84.9, 89.9, 86.2, 79, 94.1%"
same,growth,[2]; runs of 2008,"inactive: 85.4, 84.1, 59, 98.7, 85.2, 91.3, 90.3 (2×), 79.7 (2×), 83.1, 77, 80.8, 89.3, 92.8, 67.9, 89.5, 68.9, 53.8, 70.6, 74.1, 83.9, 80.9, 75.3, 86.5, 96.6, 74.3 (2×), 108, 95.1, 82.5, 61.9, 79.8, 80.1 (2×), 64, 67.1, 65.9, 82.7, 91.2, 86.9, 100, 96.9, 80.3, 82.1, 98, 103, 76.4, 68.8, 79.2, 80.5, 86.1, 83.5%"
same,growth,[2]; runs of 2009,"inactive: 82.3 (2×), 73.9 (2×), 73.5, 78.1, 77.9, 76.7, 82.1, 87.4, 72.8, 89.1, 82.4, 86.8, 97.9, 80 (2×), 76.1, 88, 91.3, 81.9, 90.2, 84.8, 82.2, 77, 84.5, 87.9, 79.7, 78.2, 68.8, 88.9 (3×), 88.6, 92.4, 84.3, 97.3, 78.5, 79.5, 80.2, 77.3, 94.9, 95.9, 105, 80.3, 76.8, 86.7 (2×), 104, 81.4, 67.4 (2×), 98.8, 92.9, 75.5, 94.1, 95.5, 91.5, 89.2, 91.8, 79.9, 101, 97.7, 84.6%"
same,growth,[2]; runs of 2010,"inactive: 83.6, 88.5, 80.1, 86.5, 92, 80, 90.9, 90.8, 80.8, 76.8, 67.8, 75.1, 71.4, 68.5, 70.9, 106, 64.9, 72.3, 93.7, 84.3 (2×), 82.9 (2×), 89.9 (2×), 86.4, 91.2, 88.7, 76.6, 74.3, 72, 88.9, 91.3, 83.4 (2×), 94.4, 77.9, 80.7, 69.9, 88.2 (2×), 85.6, 98.3, 92.1, 110, 90.6, 94, 93.1, 85.2, 89.7, 97.7, 95.8%"
same,growth,[2]; runs of 2011,"inactive: 102 (5×), 93.6, 83.5, 87.3, 95.8, 104 (3×), 98.1, 84, 93.1 (2×), 99.6, 108, 96.1, 97.6, 97.9, 93, 99.2, 99.9, 88.9, 101 (3×), 98.6, 89, 103, 96.7, 100 (3×), 94.8, 82.1, 106, 83.3, 92, 90.9 (2×), 98.4, 88.8, 97.5, 87.2, 90.5, 89.1, 94.1, 95.6, 82.4, 93.2, 97.1, 91.9, 98.2, 97.7, 92.9, 94.5%"
